Test results as given in PubChem BioAssay AID686971 (National Center for Advancing Translational Sciences (NCATS), 2013).
Screen size: about 360,000 compounds; about 7,500 (2.1%) were called active. Inconclusive means that the source gave no clear call. Such entries were picked first, then a sample of the others. Calls follow the shape of the dose curve; as a rule, active = well fitted cell-killing curve with a large enough effect; inconclusive = small, poorly fitted or top-dose-only effect, or effect the other way, or another doubt; inactive = no such curve, though single readings can be large or run the other way. Potencies of inconclusive entries are left out as doubtful fits.

experiment: qHTS for induction of synthetic lethality in tumor cells producing 2HG: qHTS for the HT-1080-IDH1KD cell line; details: HT-1080 IDH1 knockdown viability, ATP luminescence, 48 h; activity, negative = toxicity: at 46.1 µM (top of the series) unless noted;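 as to activity, negative = toxicity: 0% = DMSO wells and -100% = cell-free medium wells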
How it was run: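 In this qHTS, HT-1080 cells depleted of IDH1 are exposed for 48 h at 37 °C to compound titrations. Toxicity is scored from CellTiter-Glo luminescence, with DMSO as full viability and medium alone as none.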
Potency is read from the fitted curve at half-maximal effect; tags tell the direction and shape of the fitted curve.

Row | Structure (SMILES) | Potency | activity, negative = toxicity
1 | O=C(CC(c1ccccc1)c1ccccc1)Nc1ccc(Cl)cn1 | active: 14.6 µM | 
2 | OC[C@H]1O[C@@H](n2cnc3c(NCc4ccco4)ncnc32)[C@H](O)[C@@H]1O | active: 6.51 µM | 
3 | Cc1ccc(/C=N/NC(=O)c2cc(C3CC3)nc3ccccc23)o1 | active: 5.8 µM | 
4 | CN1CCN(c2ccc3sc(-n4ccc5ccccc54)nc3c2)CC1 | inconclusive [cytotoxic, single point] | 
5 | CCCCC[C@@H]1C=C(C(=O)O)[C@H](c2ccc(OC)c(OC)c2)N1S(=O)(=O)c1ccc(C)cc1 |  | inactive: -3.31%
6 | O=C1CC2CC1C(C(=O)O)C2C(=O)O (stereo not given) |  | inconclusive: 21%
7 | CCN(CC)c1ccc(/C=N/NC(=O)c2ccoc2C)c(O)c1 | active: 5.17 µM | 
8 | Cc1ccc(Cn2nc(C)c(C(=O)NCC(c3cccs3)N3CCOCC3)c2Cl)cc1 (stereo not given) |  | inactive: -13.2%
9 | CCOP(=O)(c1ccccc1)c1nc(-c2ccccc2C)oc1N1CCCCC1 (stereo not given) | inconclusive [cytotoxic, single point] | 
10 | CCCC(C(=O)n1nc(C)cc1C)C(NS(=O)(=O)c1ccc(C)cc1)c1ccccc1 (stereo not given) | inconclusive [cytotoxic, single point] | 
11 | CCCn1c2c(c(=N)c3c1CCC3)CCCC2 |  | inactive: -17.5%
12 | CCN(CC)CCCNC(=O)c1ccc(S(=O)(=O)Nc2ccc(C)c(C)c2)cc1 |  | inactive: -10.9%
13 | Cc1ccccc1-c1noc(-c2ccc(O)cc2)n1 | inconclusive [cytotoxic, single point] | 
14 | O=C(NCc1cccs1)c1ccc(-c2ccc(F)c(F)c2)c2ccoc12 | inconclusive [cytotoxic, single point] | 
15 | CCN1CC2=C(OC(N)=C(C#N)C2c2cccs2)/C(=C\c2cccs2)C1 (stereo not given) | inconclusive [cytotoxic, single point] | 
16 | Cc1c(NC(=O)Nc2cccs2)cccc1[N+](=O)[O-] |  | inactive: -0.719%
17 | CC(C)C1C(=O)N(Cc2cn(CCC3OCCO3)nn2)CCS(=O)(=O)N1Cc1ccc(-c2ccccc2Cl)cc1 (stereo not given) | inconclusive [cytotoxic, single point] | 
18 | Cc1cc(C)n(CCc2nc(-c3ccc(-c4ccccc4)cc3)cs2)n1 | inconclusive [cytotoxic, single point] | 
19 | COC(=O)c1cc(C(=O)OCC(=O)NNC(=O)c2cccs2)cc([N+](=O)[O-])c1 |  | inconclusive: -17.9% [cytotoxic]
20 | Cc1cccc2cc(CN(Cc3ccco3)S(=O)(=O)c3ccc4c(c3)OCCO4)c(=O)[nH]c12 | inconclusive [cytotoxic, single point] | 
21 | COc1ccc(OC)c(NC(=O)Nc2nnc(N3CCCCC3C)s2)c1 (stereo not given) | inconclusive [cytotoxic, single point] | 
22 | CC12CC3(C)CC(C)(C1)CC(C(=O)NC(=S)N1CCCC1)(C2)C3 |  | inconclusive: -6.26%
23 | CC(C(=O)NC1C=CS(=O)(=O)C1)N1C(=O)/C(=C/c2cccc(Cl)c2)SC1=S (stereo not given) | inconclusive [cytotoxic, single point] | 
24 | Nc1ccc(C(=O)N/N=C/c2cn(Cc3ccccc3F)c3ccccc23)cc1 | inconclusive [cytotoxic, partial curve] | 

Row | Structure (SMILES) | Potency | activity, negative = toxicity
25 | COc1ccc(-c2cn3c(C)c(C(=O)Nc4cc(NC(C)=O)ccc4OC)sc3n2)cc1 | inconclusive [cytotoxic, full curve] | 
26 | O=C(CSc1ccccn1)Nc1ccc2[nH]c(=O)[nH]c2c1 |  | inactive: 7.26%
27 | CC1=CC(C)(C)N2C(=O)C(=O)c3cc(OC(=O)c4ccco4)cc1c32 | active: 16.4 µM | 
28 | Cc1cc(OC(=O)c2ccccc2C(F)(F)F)c([N+](=O)[O-])c(=O)[nH]1 |  | inactive: -0.278%
29 | CCn1ncc(/C=N\NC(=O)c2csc3ccccc23)c1C | active: 5.17 µM | 
30 | COc1ccc(CC(=O)Nc2cccc(S(=O)(=O)N3CCCCCC3)c2)cc1OC |  | inactive: -20.8%
31 | Fc1ccc(Nc2c3c(nc4ccccc24)CCC3)cc1 | inconclusive [cytotoxic, single point] | 
32 | Cc1ccc2nc(/C(C#N)=C\c3ccc(N4CCCCC4)c([N+](=O)[O-])c3)[nH]c2c1 | inconclusive [cytotoxic, single point] | 
33 | Cc1ccsc1C1Nc2ccc3ncccc3c2C2=C1C(=O)CCC2 (stereo not given) | inconclusive [cytotoxic, single point] | 
34 | Nc1c(C(=O)Nc2ccc3c(c2)OCCO3)nnn1Cc1cccc(Br)c1 | active: 13 µM | 
35 | COc1cc(C)ccc1NC(=O)Cc1csc(NC(=O)Nc2ccccc2OC)n1 | inconclusive [cytotoxic, partial curve, poor fit] | 
36 | CCOC(=O)c1ccc(Nc2nc(N3CCOCC3)nc(N3CCOCC3)n2)cc1 | inconclusive [rising, single point] | 
37 | CCc1nc2oc3cc(OC)ccc3c(=O)c2c(=O)n1Cc1ccco1 |  | inactive: -0.912%
38 | C=C(C)C(=O)OCC(O)COc1ccc(C(C)(C)c2ccc(OCC(O)COC(=O)C(=C)C)cc2)cc1 (stereo not given) | inconclusive [cytotoxic, single point] | 
39 | COc1ccc(NC(=S)NNC(=S)Nc2cccc(C(F)(F)F)c2)cc1 | inconclusive [cytotoxic, single point] | 
40 | CC(CC(=O)Nc1ncc([N+](=O)[O-])s1)c1ccccc1 (stereo not given) | inconclusive [cytotoxic, single point] | 
41 | COc1cccc(N=Cc2c(O)c3ccccc3oc2=O)c1 | inconclusive [cytotoxic, partial curve] | 
42 | O=C(c1cc(-c2ccc(Br)cc2)nc2ccccc12)N1CCN(c2ccccc2O)CC1 | inconclusive [cytotoxic, partial curve] | 
43 | CC(NC(=O)Nc1ccc(Cl)cc1)c1ccccc1 (stereo not given) |  | inactive: -0.821%
44 | COc1ccc(Cn2c(-c3ccc(Cl)cc3)c[n+]3ccccc23)cc1 | inconclusive [cytotoxic, partial curve] | 
45 | COc1ccc(-c2nc(-c3ccc4c(c3)OCO4)[nH]c2-c2ccc(OC)cc2)cc1 | inconclusive [cytotoxic, single point] | 
46 | COc1ccccc1C1CCN(Cc2ccc3ccccc3c2)CC1 | active: 23.1 µM | 
47 | COC(=O)C[C@H]1C=C[C@@H](NC(=O)Cc2cccnc2)[C@@H](CO)O1 |  | inactive: 15.1%
48 | CC(C)(C)NC(=O)C[C@H]1C[C@H](C(=O)N2CCOCC2)[C@@]2(CCC3CCCC3)c3[nH]c4ccc(Cl)cc4c3CCN2C1=O | inconclusive [cytotoxic, single point] | 

Row | Structure (SMILES) | Potency | activity, negative = toxicity
49 | Nc1c(C(=O)NCc2ccc3c(c2)OCO3)nnn1Cc1ccc(Br)cc1 | inconclusive [cytotoxic, partial curve, poor fit] | 
50 | COc1ccc(-n2nc3c(c2NC(=O)c2cc4ccccc4o2)CS(=O)(=O)C3)cc1 |  | inactive: 1.32%
51 | CCc1ccccc1NNC(=O)c1snnc1C | inconclusive [cytotoxic, single point] | 
52 | CC(C)CC(N)c1csc(Nc2ccc(C(F)(F)F)cn2)n1 (stereo not given) | inconclusive [cytotoxic, single point] | 
53 | Cc1cc(Cl)ccc1NNC(=O)CCc1ccccc1 | inconclusive [cytotoxic, partial curve] | 
54 | COc1ccc(OC)c(-c2csc(NC(=O)Cc3ccccc3)n2)c1 | inconclusive [cytotoxic, single point] | 
55 | O=C(Nc1nc2ccc(S(=O)(=O)N3CCCC3)cc2s1)C1CCCCC1 | active: 14.6 µM | 
56 | CC(C)CN(C(=O)c1ccco1)C1CCS(=O)(=O)C1 (stereo not given) |  | inactive: 6.92%
57 | Cc1nc(NS(=O)(=O)c2ccc(Cl)s2)c2c3c(sc2n1)CCCC3 | inconclusive [cytotoxic, partial curve, poor fit] | 
58 | COC(=O)c1ccc(NC(=O)CSC2=NC(=O)C(c3ccccc3)C(=O)N2)cc1 (stereo not given) | inconclusive [cytotoxic, single point] | 
59 | C[C@@H]1CN([C@@H](C)CO)S(=O)(=O)c2ccc(C#CC3CCCCC3)cc2O[C@@H]1CN(C)Cc1cccnc1 | inconclusive [cytotoxic, single point] | 
60 | O=C(CCl)Nc1ccccc1Sc1ccc(Cl)cc1 | inconclusive [cytotoxic, single point] | 
61 | CCOc1cc(/C=N/NC(=O)c2ccncc2)cc(Br)c1O |  | inactive: 2.86%
62 | CCOc1ccc(C(=O)CCN2CCCCCC2)cc1 | inconclusive [cytotoxic, single point] | 
63 | Clc1cccc(C[n+]2cc(-c3ccccc3)n3c2CCC3)c1 | inconclusive [cytotoxic, single point] | 
64 | CC1CCN(CCCOc2ccc(Cl)cc2Br)CC1 | active: 23.1 µM | 
65 | COC(=O)c1c(N2C(=O)[C@H]3[C@@H](C2=O)[C@]2(C(=O)Nc4c(C)cccc42)N2CCC[C@@H]32)sc(C)c1C | inconclusive [cytotoxic, partial curve] | 
66 | O=C(NNC(=O)c1cccnc1)Nc1cccc(Cl)c1Cl |  | inconclusive: 31.1%
67 | CCC(=O)N1CCCC1(C)C(=O)Nc1ccc2scnc2c1 (stereo not given) | inconclusive [rising, partial curve] | 
68 | Cc1ccc(NC(=O)CN(C)S(=O)(=O)c2cccs2)cc1F |  | inactive: -10.6%
69 | COC(=O)c1cc(Cl)ccc1NCC(N)c1ccccc1 (stereo not given) | active: 18.4 µM | 
70 | O=C(Nc1cccc(Cl)c1)c1ccc(F)c(S(=O)(=O)NCc2cccs2)c1 | inconclusive [cytotoxic, partial curve] | 
